In all, about 310,000 compounds went through this assay and about 14,000 (4.5%) showed an effect of 50% or more. Effects have a minus sign here. This is one part of the list.
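Note: peak tail current of the secondary pulse compared with the same well before compound.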

Chain of human ether-à-go-go-related gene (hERG) potassium channel (Q12809 whole entry, looked up): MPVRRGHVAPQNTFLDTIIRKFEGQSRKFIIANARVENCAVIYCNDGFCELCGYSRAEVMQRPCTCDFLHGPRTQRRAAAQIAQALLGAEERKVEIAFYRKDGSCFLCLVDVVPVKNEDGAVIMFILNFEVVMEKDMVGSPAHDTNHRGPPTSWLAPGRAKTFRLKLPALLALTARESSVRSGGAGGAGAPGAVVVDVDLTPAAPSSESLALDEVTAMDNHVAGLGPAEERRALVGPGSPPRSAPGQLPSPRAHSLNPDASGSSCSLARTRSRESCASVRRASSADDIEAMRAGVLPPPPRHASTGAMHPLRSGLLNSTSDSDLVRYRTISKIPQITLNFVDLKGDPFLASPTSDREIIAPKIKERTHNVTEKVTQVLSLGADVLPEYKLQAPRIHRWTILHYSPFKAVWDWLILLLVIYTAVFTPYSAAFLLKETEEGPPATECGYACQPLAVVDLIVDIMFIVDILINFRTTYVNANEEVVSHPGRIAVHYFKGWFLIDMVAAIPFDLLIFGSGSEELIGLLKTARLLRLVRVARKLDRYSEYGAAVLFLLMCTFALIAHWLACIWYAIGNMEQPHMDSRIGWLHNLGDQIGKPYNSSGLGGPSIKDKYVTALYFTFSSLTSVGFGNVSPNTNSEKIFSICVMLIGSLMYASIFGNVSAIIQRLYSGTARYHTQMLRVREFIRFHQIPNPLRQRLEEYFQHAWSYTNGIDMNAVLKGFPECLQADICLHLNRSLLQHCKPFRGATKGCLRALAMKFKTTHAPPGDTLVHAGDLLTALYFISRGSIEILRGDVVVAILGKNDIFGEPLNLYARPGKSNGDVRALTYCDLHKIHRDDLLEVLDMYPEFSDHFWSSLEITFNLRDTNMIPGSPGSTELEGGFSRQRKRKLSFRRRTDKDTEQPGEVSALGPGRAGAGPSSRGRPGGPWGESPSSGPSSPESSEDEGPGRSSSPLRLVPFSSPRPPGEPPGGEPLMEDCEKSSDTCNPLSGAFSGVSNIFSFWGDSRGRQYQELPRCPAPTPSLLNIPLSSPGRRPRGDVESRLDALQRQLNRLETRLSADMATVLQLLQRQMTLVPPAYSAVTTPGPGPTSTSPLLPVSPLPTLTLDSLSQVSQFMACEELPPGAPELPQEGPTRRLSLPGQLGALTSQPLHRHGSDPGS

The assay has as its target human ether-à-go-go-related gene (hERG) potassium channel (human, UniProt Q12809). In words: primary screen, population patch clamp on CHO cells stably expressing hERG.
As for `Nc1cccc(CCc2ccncc2)c1`, the “hERG current change (%, negative = inhibition) at 10uM” value is listed as 6.19%. To `COc1ccc(C(=O)Nc2ccc(S(=O)(=O)NC(C)=O)cc2)cc1[N+](=O)[O-]` belongs 19.6%; to `CN(C)NC(=O)C(NC(=O)c1ccc(N)cc1)C12CC3CC(CC(C3)C1)C2` (stereo not shown), 13.9%.

Turning to `C[C@@H]1O[C@@H](OC[C@H]2O[C@@H](Oc3c(-c4ccc(O)c(O)c4)oc4cc(O)cc(O)c4c3=O)[C@H](O)[C@@H](O)[C@@H]2O)[C@H](O)[C@H](O)[C@H]1O`, the “hERG current change (%, negative = inhibition) at 10uM” value was 26%.

Turning to `O=C(NCCC(c1ccccc1)c1ccccc1)c1cnccn1`, the “hERG current change (%, negative = inhibition) at 10uM” value is given as -12.5%.

Regarding `CC(=O)NC(Cc1c[nH]c2ccccc12)C(=O)Nc1ccc2c(c1)OCO2` (stereo not shown), the “hERG current change (%, negative = inhibition) at 10uM” value is 5.65%. As for `COc1ccc(-c2cc(C(=O)N3CCC4(CC3)OCCO4)c3ccccc3n2)cc1`, the figure is -16.4%; as for `COc1ccc(OCCSc2nc(-c3ccccc3)cc(=O)[nH]2)cc1`, 20.4%. As for `COC(=O)c1cc(OC)c(OCc2cc(C(=O)OC)oc2C)c(OC)c1`, the figure is 6.14%; as for `O=Cc1cccn1-c1sc2c(c1C(=O)O)CCCC2`, 8.66%. To `Cc1ccc(N2CC(C(=O)NCc3n[nH]c(=O)c4ccccc34)CC2=O)cc1C` (stereo not shown) belongs -13.5%; to `Cc1c(CC(=O)N[C@@H](C)C(=O)O)c(=O)oc2cc3oc4c(c3cc12)CCCC4`, 16.6%; to `C=CCn1c(SCC#N)nnc1-c1ccc2ncccc2c1`, -3.27%. For `CC(=O)Nc1ccc(NCC(=O)c2ccccc2)cc1`, the “hERG current change (%, negative = inhibition) at 10uM” value amounted to 14.7%.

Take `CCCCCn1c(=O)c(C(=O)Nc2c(C)n(C)n(-c3ccccc3)c2=O)c(O)c2ccccc21`: the “hERG current change (%, negative = inhibition) at 10uM” value stood at 5.7%.

`C=CCSc1nc(N(CC)CC)c2sccc2n1`: the “hERG current change (%, negative = inhibition) at 10uM” value is given as -12.4%. On to `O=C(c1cccc(S(=O)(=O)N2CCOCC2)c1)N(Cc1ccc(F)cc1)Cc1ccco1`, for which the “hERG current change (%, negative = inhibition) at 10uM” value is listed as -88.4%.

As to `O=C1CCCc2c1cc(C(=O)NCc1ccco1)c(=O)n2-c1ccc(Cl)cc1`, the “hERG current change (%, negative = inhibition) at 10uM” value is -69.3%. To `Cc1ccsc1CNC1CCCCC1` belongs 9.94%; to `CN(C)CCNC(=O)c1onc(CSc2nc3ccccc3[nH]2)c1C(=O)NCCN(C)C`, -0.951%; to `CCCCC(=O)NC(=S)Nc1cc(C(=O)O)ccc1Cl`, 11.2%.

Consider `O=C(Nc1ccc2oc(-c3ccccc3)nc2c1)c1cccs1`, for which the “hERG current change (%, negative = inhibition) at 10uM” value turned out to be 6%. To `Cc1noc(C)c1COc1ccccc1C(=O)NC1CCC(C)CC1` (stereo not shown) belongs 0.497%; to `COc1ccc(C(=O)Cc2ccc3c(c2)OCO3)c(O)c1`, -9.04%.

Take `Cc1ccc(NC(=O)c2cnc(SCC(=O)c3ccccc3)n(C)c2=O)cc1`: the “hERG current change (%, negative = inhibition) at 10uM” value amounted to 13.7%. Regarding `CCOc1ccc(/C=N/NC(=O)c2ccccc2C)cc1CN1CC2CC(C1)c1cccc(=O)n1C2` (stereo not shown), the “hERG current change (%, negative = inhibition) at 10uM” value was -26.8%.

`CCCOc1ccc(/C(O)=C2/C(=O)C(=O)N(c3ccccn3)C2c2ccc(OC)cc2)cc1C` (stereo not shown): the “hERG current change (%, negative = inhibition) at 10uM” value is 22.7%. With `C[N+](C)(C)CCOC(=O)CCC(=O)OCC[N+](C)(C)C.O.[Cl-]`, the “hERG current change (%, negative = inhibition) at 10uM” value worked out at 7.47%. In the case of `Cc1c(NC(=O)Nc2ccc(Cl)c(Cl)c2)c(=O)n(-c2ccccc2)n1C`, the “hERG current change (%, negative = inhibition) at 10uM” value is listed as -7.58%.

In the case of `COc1ccc(-c2cc3c(=O)n(CC(=O)NCc4cccnc4)nc(C)n3n2)cc1`, the “hERG current change (%, negative = inhibition) at 10uM” value was -3.95%.

Consider `O=C(NCCc1ccccc1)C1COc2ccccc2O1` (stereo not shown), for which the “hERG current change (%, negative = inhibition) at 10uM” value is listed as 1.55%. For the compound `Cc1ccccc1NC(=O)Nc1ccccc1Br`, the “hERG current change (%, negative = inhibition) at 10uM” value is 13.7%.

For `CC1CCN(C(=O)c2ccc(NC(=O)c3cccs3)cc2)CC1`, the “hERG current change (%, negative = inhibition) at 10uM” value is recorded as -1.19%. For the compound `Cc1cc2nccc(-c3cccnc3)n2n1`, the “hERG current change (%, negative = inhibition) at 10uM” value is on record as 4.69%.

In the case of `CCC/C=N/NC(=O)c1cccc(Br)c1`, the “hERG current change (%, negative = inhibition) at 10uM” value is recorded as 0.11%. On to `CC(=O)NNc1cccc(Cl)n1`, for which the “hERG current change (%, negative = inhibition) at 10uM” value is recorded as -9.49%.

As to `O=S(=O)(NCCc1csc(-c2ccccc2)n1)c1cccnc1`, the “hERG current change (%, negative = inhibition) at 10uM” value came out at 8.48%. On to `COc1ccc(Cl)cc1S(=O)(=O)Nc1ncn[nH]1`, for which the “hERG current change (%, negative = inhibition) at 10uM” value is 12.9%.

On to `CC1(C)CC(=O)c2cc(OCC(=O)NCCCN3CCN(c4ccc(F)cc4)CC3)ccc2O1`, for which the “hERG current change (%, negative = inhibition) at 10uM” value was -72.9%. As for `O=C(O)c1ccccc1C(=O)N1N=C(c2ccccc2)CC1c1ccccc1O` (stereo not shown), the “hERG current change (%, negative = inhibition) at 10uM” value stood at 6.81%. For the compound `CC(=O)c1cc(-c2ccccc2)n(CCC(=O)NC2CCCCCC2)c1C`, the “hERG current change (%, negative = inhibition) at 10uM” value was -11.7%. On to `CCOC(=O)C1=C(c2ccccc2)NC(=O)NC1c1cccc(OC)c1OC` (stereo not shown), for which the “hERG current change (%, negative = inhibition) at 10uM” value turned out to be 8.47%.

For the compound `COc1ccc(Cl)cc1NC(=O)NC1CCCCC1`, the “hERG current change (%, negative = inhibition) at 10uM” value was 10.3%. With `Cc1ccc(NS(=O)(=O)c2ccc(C(=O)NCc3ccccn3)cc2)cc1`, the “hERG current change (%, negative = inhibition) at 10uM” value came out at 18.8%.

In the case of `C=CCOC(=O)C1=C(C)OC(N)=C(C#N)C1c1ccc(F)cc1` (stereo not shown), the “hERG current change (%, negative = inhibition) at 10uM” value is 4.61%. As for `COc1ccc(C2/C(=C(/O)c3ccccc3)C(=O)C(=O)N2CCN2CCOCC2)c(OC)c1` (stereo not shown), the figure is -11%; as for `O=C(Nc1ccc(Cl)c(Cl)c1)Nc1nnc(CC2=CCCCC2)s1`, 24.6%; as for `Cn1nnc(NC(=O)c2cccc([N+](=O)[O-])c2)n1`, 0.388%. `O=C(Nc1ncc2c(n1)-c1ccccc1OC2)c1ccc(F)cc1`: the “hERG current change (%, negative = inhibition) at 10uM” value is reported as -19.1%. Turning to `COc1cccc(CNC(=O)c2ccccc2C(=O)NC(C)(C)C(=O)NCc2cccc(OC)c2)c1`, the “hERG current change (%, negative = inhibition) at 10uM” value is -3.27%.

`Cc1ccc(-n2ncc3c(=O)n(CC(=O)N4CCN(C(=O)c5ccco5)CC4)cnc32)cc1`: the “hERG current change (%, negative = inhibition) at 10uM” value is listed as -33.4%. As to `O=C(Cc1ccc(Cl)cc1)N1CCC2(CC1)NCCc1[nH]cnc12`, the “hERG current change (%, negative = inhibition) at 10uM” value worked out at 7.89%. For `O=C(O)CCn1cc(/C=C2/NC(=S)N(c3ccccc3)C2=O)c(-c2ccccc2)n1`, the “hERG current change (%, negative = inhibition) at 10uM” value was found to be 17.3%. Take `CCC(=O)Oc1cccc(C(=O)Nc2cccc(NC(=O)c3ccco3)c2)c1`: the “hERG current change (%, negative = inhibition) at 10uM” value is -1.06%.

`C=C1CCN([C@@H](Cc2ccccc2)C(=O)NCc2ccc(Cl)cc2)S(=O)(=O)c2ccccc21`: the “hERG current change (%, negative = inhibition) at 10uM” value came to 1.34%.
